Some of the results follow.

The assay has as its system HSkMC (human skeletal muscle cells). The assay is described as follows: cytotoxicity call (relative viability < 0.9). The following applies: 10 µM.
As for `C[C@@H]1CN([C@@H](C)CO)C(=O)c2cc(Br)cnc2O[C@@H]1CN(C)C(=O)Nc1ccc(F)cc1`, the cytotoxicity call is “inactive”.

Take `C[C@@H]1CN([C@H](C)CO)C(=O)Cc2cc(NC(=O)Nc3ccc(C(F)(F)F)cc3)ccc2O[C@H]1CN(C)Cc1ccc(C(=O)O)cc1`: the cytotoxicity call is “inactive”. Consider `C[C@@H]1CN([C@@H](C)CO)C(=O)Cc2cc(NC(=O)Cn3cnnn3)ccc2O[C@@H]1CN(C)S(C)(=O)=O`, for which the cytotoxicity call is “inactive”. Next, `C[C@@H]1CN([C@H](C)CO)C(=O)c2cc(NS(C)(=O)=O)ccc2O[C@@H]1CN(C)S(=O)(=O)c1ccccc1`: “inactive”; `C[C@@H]1CN([C@@H](C)CO)C(=O)c2cc(NC(=O)c3ccncc3)ccc2O[C@@H](C)CCCCO[C@@H]1CN(C)C(=O)C1CCCCC1`: “inactive”; `Cc1ccc(S(=O)(=O)N2C[C@@H](O)COC[C@H]3O[C@@H](CC(=O)N[C@@H]4CCN(Cc5ccccc5)C4)CC[C@@H]32)cc1`: “inactive”. Next, `C[C@@H]1CN([C@H](C)CO)C(=O)Cc2cc(NC(=O)Nc3ccc4c(c3)OCO4)ccc2O[C@@H]1CN(C)C(=O)Nc1cccc2ccccc12`: “inactive”; `CN1C(=O)c2cc(NC(=O)C3CCCC3)ccc2OC[C@H]2O[C@H](CC(=O)NCCc3ccncc3)CC[C@H]21`: “inactive”.

Take `Cc1noc(C)c1NC(=O)N(C)C[C@@H]1OCCCC[C@@H](C)Oc2ccc(NC(=O)C3CCCCC3)cc2C(=O)N([C@H](C)CO)C[C@H]1C`: the cytotoxicity call was “inactive”. With `COCC#Cc1cnc2c(c1)C(=O)N([C@H](C)CO)C[C@@H](C)[C@H](CN(C)S(=O)(=O)c1cccc(OC)c1)O2` the entry was “inactive”.
